# Source: a collection of fitness landscapes (doi:10.1126/science.1257360)
# The list shows a part of the results.
# B1: PhoQ; a variant is named by its letters at X, in order, P23837 (parent)
# chain: MKKLLRLFFPLSLRVRFLLATAAVVLVLSLAYGMVALIGYSVSFDKTTFRLLRGESNLFYTLAKWENNKLHVELPENIDKQSPTMTLIYDENGQLLWAQRDVPWLMKMIQPDWLKSNGFHEIEADVNDTSLLLSGDHSIQQQLQEVREDDDDAEMTHSVAVNVYPATSRMPKLTIVVVDTIPVELKSSYMVWSWFIYVLSANLLLVIPLLWVAAWWSLRPIEALAKEVRELEEHNRELLNPATTRELTSLVRNLNRLLKSERERYDKYRTTLTDLTHSLKTPLXXLQXXLRSLRSEKMSVSDAEPVMLEQISRISQQIGYYLHRASMRGGTLLSRELHPVAPLLDNLTSALNKVYQRKGVNISLDISPEISFVGEQNDFVEVMGNVLDNACKYCLEFVEISARQTDEHLYIVVEDDGPGIPLSKREVIFDRGQRVDTLRPGQGVGLAVAREITEQYEGKIVAGESMLGGARMEVIFGRQHSAPKDE
# Variants of: B1
# Experiment: enrichment ratio after two sorts for PhoP signalling (ratio (wild type AVST 3.29)); higher = more functional
# Settings: with PhoP (E. coli)
row,Variant,enrichment ratio
1,WAYQ,≤ 0.25
2,FKTV,≤ 0.25
3,YGDN,≤ 0.25
4,CSVP,≤ 0.25
5,AMMY,7.81
6,IVMA,≤ 0.25
7,LRAD,≤ 0.25
8,VVGV,≤ 0.25
9,MYVM,≤ 0.25
10,SAMH,2.95
11,FGHF,≤ 0.25
12,FPCD,≤ 0.25
13,RGCF,≤ 0.25
14,RTIP,≤ 0.25
15,NMIR,≤ 0.25
16,NARK,≤ 0.25
17,DVTV,≤ 0.25
18,QQPN,≤ 0.25
19,FAWE,≤ 0.25
20,VAYP,≤ 0.25
21,KCVA,≤ 0.25
22,SGNE,≤ 0.25
23,KFDD,≤ 0.25
24,TQRF,≤ 0.25
25,FPTH,≤ 0.25
26,QYRT,≤ 0.25

row,Variant,enrichment ratio
1,EYKR,≤ 0.25
2,NYGD,≤ 0.25
3,QCTG,≤ 0.25
4,GCMA,1.39
5,NYHF,≤ 0.25
6,LDTK,≤ 0.25
7,CFRY,≤ 0.25
8,PTMM,≤ 0.25
9,LHLG,≤ 0.25
10,KIGS,≤ 0.25
11,WCLN,≤ 0.25
12,ALWQ,≤ 0.25
13,LCGR,≤ 0.25
14,HKDD,≤ 0.25
15,VPDL,≤ 0.25
16,SWTN,≤ 0.25
17,SQPH,≤ 0.25
18,KLHV,≤ 0.25
19,META,≤ 0.25
20,VHRR,≤ 0.25
21,MKTF,≤ 0.25
22,SSWN,≤ 0.25
23,NYGY,≤ 0.25
24,WWLM,≤ 0.25
25,PSNQ,≤ 0.25
26,SQFN,≤ 0.25

row,Variant,enrichment ratio
1,VCVE,≤ 0.25
2,SLIK,≤ 0.25
3,AQMW,≤ 0.25
4,NGPN,≤ 0.25
5,MLNF,≤ 0.25
6,TGKN,≤ 0.25
7,EIIP,≤ 0.25
8,ATKR,≤ 0.25
9,QQFV,3.62
10,EEYI,≤ 0.25
11,LMMG,≤ 0.25
12,SWGI,≤ 0.25
13,VWFI,≤ 0.25
14,DYHL,≤ 0.25
15,REPW,≤ 0.25
16,IAPT,≤ 0.25
17,KPLY,≤ 0.25
18,TCAP,≤ 0.25
19,PAVC,≤ 0.25
20,NAYE,≤ 0.25
21,KTNR,≤ 0.25
22,IPTP,≤ 0.25
23,DPIS,≤ 0.25
24,MNCW,≤ 0.25
25,TNYK,≤ 0.25
26,DNFT,≤ 0.25

row,Variant,enrichment ratio
1,HVLP,≤ 0.25
2,RVGV,≤ 0.25
3,TASH,11.7
4,WLQK,≤ 0.25
5,NYAP,≤ 0.25
6,KNFG,≤ 0.25
7,QGLF,1.25
8,TFIN,≤ 0.25
9,PGKG,≤ 0.25
10,VSVQ,≤ 0.25
11,LEPI,≤ 0.25
12,ICSG,≤ 0.25
13,SNPP,≤ 0.25
14,HTFN,≤ 0.25
15,SQRG,0.463
16,DWSL,≤ 0.25
17,WYVP,≤ 0.25
18,YAAE,≤ 0.25
19,NWSD,≤ 0.25
20,MTIM,25.3
21,YNLD,≤ 0.25
22,YLGC,≤ 0.25
23,EQRR,≤ 0.25
24,RARF,≤ 0.25
25,GMHA,≤ 0.25
26,TSRL,≤ 0.25

row,Variant,enrichment ratio
1,NFGC,≤ 0.25
2,YKCI,0.57
3,IQYW,≤ 0.25
4,EICW,≤ 0.25
5,QMCH,≤ 0.25
6,YKVG,1.94
7,LNRW,≤ 0.25
8,WRMG,≤ 0.25
9,MAGL,8.15
10,ASIT,9.21
11,RLYP,≤ 0.25
12,FVRR,≤ 0.25
13,PGPG,≤ 0.25
14,HNNL,≤ 0.25
15,LCPV,≤ 0.25
16,SWGT,≤ 0.25
17,KMGH,≤ 0.25
18,LDVQ,≤ 0.25
19,NQHD,≤ 0.25
20,ICTF,≤ 0.25
21,KVNF,≤ 0.25
22,LICI,≤ 0.25
23,HFWD,≤ 0.25
24,YCPG,≤ 0.25
25,IMEM,≤ 0.25
26,IPHN,≤ 0.25

row,Variant,enrichment ratio
1,YFME,≤ 0.25
2,TEIC,2.01
3,RCLL,0.331
4,TRHA,≤ 0.25
5,HLYN,≤ 0.25
6,AKHG,≤ 0.25
7,PMWS,≤ 0.25
8,PTAY,≤ 0.25
9,VDGQ,≤ 0.25
10,VQYL,≤ 0.25
11,YGLR,≤ 0.25
12,QSTV,0.636
13,WFYW,≤ 0.25
14,HKRS,≤ 0.25
15,AQTK,≤ 0.25
16,FFML,≤ 0.25
17,MHAM,≤ 0.25
18,TCCF,7.22
19,PDRV,≤ 0.25
20,ICIN,≤ 0.25
21,HYCF,≤ 0.25
22,IGVL,≤ 0.25
23,GFWQ,≤ 0.25
